The campaign covered roughly 310,000 compounds. About 14,000 (4.5%) showed an effect of 50% or more. The effect is printed as a negative number. The list shows a part of the results.
molecular target: human ether-à-go-go-related gene (hERG) potassium channel (human, UniProt Q12809); assay: primary screen, population patch clamp on CHO cells stably expressing hERG
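Further: peak tail current of the secondary pulse compared with the same well before compound.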

Sequence of human ether-à-go-go-related gene (hERG) potassium channel (Q12809 whole entry, looked up): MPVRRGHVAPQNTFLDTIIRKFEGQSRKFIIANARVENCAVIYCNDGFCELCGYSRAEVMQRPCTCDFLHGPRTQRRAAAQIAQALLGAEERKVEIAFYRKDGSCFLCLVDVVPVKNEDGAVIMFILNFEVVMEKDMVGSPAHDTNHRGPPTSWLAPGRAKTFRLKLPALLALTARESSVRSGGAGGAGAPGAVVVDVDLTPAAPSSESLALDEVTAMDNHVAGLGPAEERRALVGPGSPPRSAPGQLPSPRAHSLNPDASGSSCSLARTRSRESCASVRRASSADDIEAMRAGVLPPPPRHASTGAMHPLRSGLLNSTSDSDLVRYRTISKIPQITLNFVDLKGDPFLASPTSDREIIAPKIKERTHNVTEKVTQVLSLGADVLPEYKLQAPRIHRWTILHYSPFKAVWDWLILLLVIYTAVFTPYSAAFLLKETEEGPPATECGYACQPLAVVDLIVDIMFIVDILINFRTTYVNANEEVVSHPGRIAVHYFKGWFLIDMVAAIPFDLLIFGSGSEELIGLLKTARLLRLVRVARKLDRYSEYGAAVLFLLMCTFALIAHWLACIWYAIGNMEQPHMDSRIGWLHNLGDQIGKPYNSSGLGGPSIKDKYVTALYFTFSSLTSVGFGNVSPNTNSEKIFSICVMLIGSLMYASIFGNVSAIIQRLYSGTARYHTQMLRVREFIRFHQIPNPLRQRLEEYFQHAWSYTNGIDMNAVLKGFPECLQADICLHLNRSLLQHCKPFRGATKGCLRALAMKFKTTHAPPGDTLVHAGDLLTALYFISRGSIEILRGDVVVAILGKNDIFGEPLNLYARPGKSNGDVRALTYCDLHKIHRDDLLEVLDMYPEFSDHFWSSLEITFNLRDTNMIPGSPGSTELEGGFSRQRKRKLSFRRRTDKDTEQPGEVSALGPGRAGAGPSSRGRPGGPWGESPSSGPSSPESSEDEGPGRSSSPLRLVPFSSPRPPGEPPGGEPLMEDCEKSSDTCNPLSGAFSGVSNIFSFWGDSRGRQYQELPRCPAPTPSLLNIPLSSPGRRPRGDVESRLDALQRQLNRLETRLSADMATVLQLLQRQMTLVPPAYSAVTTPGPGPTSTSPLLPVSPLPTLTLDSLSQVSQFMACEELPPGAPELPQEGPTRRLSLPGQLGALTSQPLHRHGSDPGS

Compound | hERG current change (%, negative = inhibition) at 10uM [%]
CCc1ccc(N2CC(C(=O)Nc3ccc(S(=O)(=O)Nc4ncccn4)cc3)CC2=O)cc1 (stereo not drawn) | 1.26
COCCCNC(=O)CCSc1ccc(Cl)cc1 | -8.9
Cc1ccc(S(=O)(=O)NCc2ccccc2)cc1C(=O)NC1CCCCC1 | 15.9
COC(=O)c1ccc(NS(=O)(=O)c2cc(C)ccc2OC)cc1 | 8.37
O=C(CNc1ccc(Br)cc1)c1ccc(O)cc1 | -2.24
O=C(CSc1nc2c([nH]c3ccccc32)c(=O)n1-c1ccc(F)cc1)NCc1ccco1 | -8.03
Clc1ccccc1Cc1noc(CN2CCN3CCCC3C2)n1 (stereo not drawn) | -9.7
CC(C)(C)NC(=O)NC(=O)CN1CCN(c2ccc(O)cc2)CC1 | 9.23
C=CCN1C(=O)CSc2ccc(C(=O)N3CCC(C)CC3)cc21 | -9.08
CC(=O)Nc1ccc(NC(=O)C(C)OC(=O)CCCc2c[nH]c3ccccc23)cc1 (stereo not drawn) | 7.68
CCOC(=O)c1cc(NC(=O)c2ccoc2C)cc(C(=O)OCC)c1 | -10.5
C=CCn1c(=O)/c(=C/c2ccc(F)cc2)s/c1=C(\C#N)c1nnc2n1CCCCC2 | -59.9
O=C(CCNS(=O)(=O)c1cccc2nsnc12)NCc1ccccc1 | 1.36
CC(C)NC(=O)NC(=O)COC(=O)c1ccc(S(=O)(=O)NCc2ccco2)cc1 | 17.1
CCCS(=O)(=O)N1CCC(C(=O)NCCCOC)CC1 | -0.339
COc1ccccc1CCC(=O)N(C)C1CCCN(Cc2ccccc2F)C1 (stereo not drawn) | -28
CC1(C)c2[nH]c3ccccc3c2C[C@@H]2C(=O)N(Cc3ccccc3)C(=O)N21 | 6.84
CCOC(=O)Cc1csc(NC(=O)CS(=O)(=O)Cc2ccccc2)n1 | -5.06
c1n[nH]c(NCc2ccc3c(c2)OCO3)n1 | 1.07
CCOc1ccccc1NC(=O)C1C2C=CC(C2)C1C(=O)O (stereo not drawn) | 6.03
Cc1ccsc1C(=O)C1CCCN(Cc2sc(N(C)C)nc2Cl)C1 (stereo not drawn) | 6.85
O=C(COC(=O)c1c(Cl)cccc1Cl)NC1CCCCC1 | -8.93
Cc1c(C(=O)CN2CCSCC2)c2ccccc2n1C | -21.7

Compound | hERG current change (%, negative = inhibition) at 10uM [%]
NNC(=O)c1cc(-c2ccc(N)cc2)nc2ccc(Br)cc12 | 15.6
COCCCNC(=O)CC(NS(=O)(=O)c1ccc(Cl)cc1)c1ccc(OC)cc1 (stereo not drawn) | -0.0404
Cc1ccccc1C(=O)NC(=S)Nc1sc2c(c1C#N)CCC(C)C2 (stereo not drawn) | 14.2
Cc1ccccc1OCC(O)Cn1c(NCc2ccco2)nc2c1c(=O)n(C)c(=O)n2C (stereo not drawn) | -52.1
COc1cccc(-c2c(-c3cc(OC)cc(OC)c3)n(C)c3ccc(Br)cc23)c1 | 7
CCSC1=NN1c1cc(C)nc(N)n1 | 10.7
COc1ccc(Oc2cc(C(F)(F)F)nc(N(C)C)n2)cc1 | 5.69
C=CCNC(=O)c1cc(-c2ccccc2O)on1 | 8.16
COc1cccc(C(=O)Nc2nnc(-c3ccccc3)s2)c1OC | 4.52
COc1ccccc1CNc1nc2nc(C)c(Cl)c(=O)n2[nH]1 | -2.39
COc1cccc2c1OC1(C)CC2NC(=O)N1c1cccc(C(=O)N2CCN(c3ccccn3)CC2)c1 (stereo not drawn) | 15.3
O=C(O)CCN1C(=O)C2C3c4ccccc4C(c4ccccc43)[C@@H]2C1=O (stereo partly drawn) | -3.66
CCc1cccc(NC(=S)N(CCN(C)C)C2CCN(C(C)C)CC2)c1 | -6.44
COc1cccc(CC(=O)n2nc(N)c3cc4ccc(OC)cc4nc32)c1 | 11.2
O=C(CCc1nnc(C2CCCCC2)o1)N1CCC(Oc2cccnc2)CC1 | 5.96
O=C(COC(=O)Cc1c[nH]c2ccccc12)Nc1ccccc1 | -3.68
Cc1ccc(CNC(=O)[C@@H](NC(=O)Cc2ccccc2)C(C)C)cc1 | 6.89
COc1ccc(CNC(=O)COC(=O)C2CCC(C(C)(C)C)CC2)cc1 (stereo not drawn) | 6.01
Cc1cc(=O)nc2c3ccccc3n(C(C)C(=O)NCCN3CCOCC3)n12 (stereo not drawn) | 15.2
CCN(CC)CCCOc1ccc(C)cc1Br | -69
CCn1c(-c2cc(Br)ccc2O)n[nH]c1=S | 14
Cc1nc2scc(C)n2c(=O)c1S(=O)(=O)N1CCN(c2ccccc2)CC1 | -26.3
O=C(CCNC(=O)c1ccccc1Cl)NC1=NCCS1 | 6.15

Compound | hERG current change (%, negative = inhibition) at 10uM [%]
O=S(=O)(c1ccccc1)N1CCN(Cc2cccc(Br)c2)CC1 | -1.71
CCCCCCN=C(C)c1c(O)n(CCCC)c(=O)[nH]c1=O | -8.21
CC(NC(=O)c1cc(F)c(F)c(F)c1F)c1ccc(-n2ccnc2)cc1 (stereo not drawn) | -65.2
Cc1cc(C)cc(Oc2coc3cc(OC(=O)c4cccnc4)ccc3c2=O)c1 | 10.7
CC(=O)Nc1ccc(S(=O)(=O)NC(C)C(=O)NCC(c2ccco2)N2CCCCC2)cc1 (stereo not drawn) | -0.15
COc1ccc(CNC(=O)c2ccc(SC)cc2OC)cc1 | -4.44
CCOC(=O)C1=C(CN2CCN(C(=O)OCC)CC2)NC(=O)NC1c1ccc2c(c1)OCO2 (stereo not drawn) | -18.4
COC(=O)c1cc2n(n1)CCCNC2=O | 31.8
COCCCN(C(=O)CCOc1ccccc1C)c1c(N)n(Cc2ccccc2)c(=O)[nH]c1=O | -3.05
Cn1c2c(c(=O)n(C)c1=O)CN(CCN1CCNCC1)CN2 | -10.1
CCCCOCC(O)CCc1n[nH]c(=S)n1-c1ccccc1 (stereo not drawn) | 23.5
CCCCn1c(O)c(C(CC)=NCc2ccco2)c(=O)[nH]c1=O | -35.4
O=C1c2ccccc2C(=O)N1c1cccc(-c2nc3ccccc3o2)c1 | 6.77
[N-]=[N+]=NCCN1CCN(CCc2ccccc2)CCC1=O | 9.16
COc1cc(NC(=O)CC(C)S(=O)(=O)c2cc3c(cc2C)NC(=O)CO3)cc(OC)c1OC (stereo not drawn) | 4.92
O=C(CCNS(=O)(=O)c1ccc(Br)cc1)NC1CCN(Cc2ccccc2)CC1 | -61.9
COc1cc(OC)c(C2SCCS2)c(OC)c1 | 2.14
CCOC(=O)c1c(NC(=O)CCCN2CCOCC2)sc2c1CC(C)(C)OC2 | -9.14
COc1cc2c(C(=O)N3CCN(c4ccccc4)CC3)c(C)oc2cc1Br | -0.66
CCOC(=O)c1c(C)[nH]c(C)c1S(=O)(=O)N1CCOCC1 | 13.8
CN(CCOc1ccc(CC2SC(=O)NC2=O)cc1)c1ccccn1.O=C(O)/C=C\C(=O)O (stereo not drawn) | 5.05
O=C(C1CCCN(c2nnc(-n3cccc3)s2)C1)N1CCC2(CC1)OCCO2 (stereo not drawn) | 1.29
O=C(Nc1ccccc1Cl)Nc1ccnn1C1CCN(C(=O)CCN2CCCO2)CC1 | 11.8

Compound | hERG current change (%, negative = inhibition) at 10uM [%]
O=C1C2C3C=CC(C3)C2C(=O)N1CNc1ccccc1 (stereo not drawn) | 11.6
O=C(NCc1ccccc1)c1cc(-n2cnnc2)ccc1Cl | -5.75
O=C(Cn1cnc2sc3c(c2c1=O)CCCC3)NCC(=O)Nc1c(F)cccc1F | 5.5
OC1c2cc(Br)ccc2N=C2CCCN21 (stereo not drawn) | 7.01
COc1ccc(-n2c(Cn3c(=O)sc4ccccc43)nnc2SCC(=O)N2CCOCC2)cc1 | -13.5
CC(C)N1CC(O)=C(c2nc3ccccc3[nH]2)C1=N | -11.1
CC1CCCN(CCOCCOc2ccc(Cl)cc2Br)C1.O=C(O)C(=O)O (stereo not drawn) | -61.1
Cc1cc(C)c2cc(C#N)c(SCC(=O)Nc3ccc4c(c3)OCO4)nc2c1 | 5.11
COc1cccc(C(=O)NCC(=O)OCC(=O)C(C)(C)C)c1 | 11.2
COCCNC(=O)c1ccccc1NC(=O)COc1ccccc1 | -12.4
COc1ccc(NC(=O)N/C=C/c2ccco2)cc1 | 30.3
CC(=O)O.CNc1nc(N/N=C/c2cc3c(cc2[N+](=O)[O-])OCO3)nc(Nc2ccccc2)n1 | 10.8
Cc1nc(SCC(=O)NCC(F)(F)F)c2c(-c3cccs3)csc2n1 | 0.503
CC(C)OC(=O)CCCNc1ccc([N+](=O)[O-])cc1[N+](=O)[O-] | -41.4
O=C(CSc1nnnn1-c1ccccc1)Nc1ccccc1 | 11.8
OCCN1CCN(c2ncnc3sc(-c4ccccc4)cc23)CC1 | -24.2
COc1ccccc1NC(=O)c1cn(CCC#N)nc1-c1cccc(Cl)c1 | -4.86
Cc1ccc2cc(CN(Cc3cccs3)Cc3nnnn3CC3CCCO3)c(=O)[nH]c2c1 (stereo not drawn) | -18.6
COc1ccccc1CNC(=O)N1CCN(c2ccccc2Cl)CC1 | 12.9
COc1ccc(-c2csc(NC(=O)c3ccc(S(C)(=O)=O)cc3)n2)cc1 | 2.97
CCCC(=O)c1ccc(N2CCN(S(=O)(=O)c3ccccc3)CC2)c(F)c1 | 7.98

Source: PMC4336329 (PLoS ONE, 2015)
